Experimental findings from the supplement of paper PMC10600219 are described below.

SMILES strings stand for the structures. Where a name gives a salt, the structure may show the parent alone. In all, about 2,800 compounds were measured (“cell viability relative to vehicle”: median about 0.98, lowest 2% from about 0.45 on). Some of the results follow.

The assay relates to NCI-H2228 alectinib-DTP. In words: cell viability relative to vehicle (fraction of vehicle); NCI-H2228 is an ALK-positive lung cancer line and DTP means drug-tolerant persister; higher = less growth inhibition. As to conditions: 100 nM; treatment time 6 days. The essentials: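 Parental NCI-H2228 cells and drug-tolerant persister cells (made with 1000 nM of a targeted drug for 13 days) were seeded in 384-well plates. The next day, the 3114-agent TargetMol anti-cancer compound library was added at 100 nM, with DMSO as vehicle. After 6 days, ATP was read with the CellTiter-Glo 3D Cell Viability Assay. Each value is cell viability relative to vehicle-treated cells.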
Take `CC[C@H](Nc1ncnc2[nH]cnc12)c1nc2cccc(F)c2c(=O)n1-c1ccccc1` [Idelalisib]: the cell viability was found to be 1. As to `COc1cc2c[n+](C)c3c4cc5c(cc4ccc3c2cc1OC)OCO5` [Nitidine chloride], the cell viability turned out to be 1.05. The molecule `O=CN1CC/C(=C/c2ccc3c(c2)OCO3)C1=O` registered a cell viability of 0.979. Molecule `NCCC(=O)O` [beta-Alanine] had a cell viability of 1.09. The molecule `CC(C)c1noc(N2CCC(COc3ccc(-c4ccc(S(C)(=O)=O)cc4)nc3)CC2)n1` displayed a cell viability of 0.874. For the molecule `O=C(NC1CCNCC1)c1n[nH]cc1NC(=O)c1c(Cl)cccc1Cl`, the cell viability turned out to be 1.14. Regarding `COC[C@@H](c1ccc(C(F)(F)F)cc1)N1CCN(C2(C)CCN(C(=O)c3c(C)ncnc3C)CC2)C[C@@H]1C` [Vicriviroc maleate], the cell viability amounted to 1.13.

`CCCC(CCC)C(=O)O` [Valproic acid sodium salt] showed a cell viability of 0.747. In the case of `CN(C)[C@@H](CCOc1cccc2ccccc12)c1ccccc1` [Dapoxetine HCl], the cell viability was found to be 1.25.

`CO[C@H]1C[C@@H]2CC[C@@H](C)[C@@](O)(O2)C(=O)C(=O)N2CCCC[C@H]2C(=O)O[C@H]([C@H](C)C[C@@H]2CC[C@@H](OP(C)(C)=O)[C@H](OC)C2)CC(=O)[C@H](C)/C=C(\C)[C@@H](O)[C@@H](OC)C(=O)[C@H](C)C[C@H](C)/C=C/C=C/C=C/1C` [Ridaforolimus] came in with a cell viability of 0.918. `CCCCC[C@H](O)CC(=O)CCc1ccc(O)c(OC)c1` [6-Gingerol] displayed a cell viability of 0.904.

As to `CC(C)(C)NCC(O)c1ccc(O)c(CO)c1` (centres undefined) [Salbutamol], the cell viability worked out at 0.987. In the case of `CCS(=O)(=O)N1CCC([C@@H](C)n2c(C)c(C(=O)NCc3c(OC)cc(C)[nH]c3=O)c3ccccc32)CC1`, the cell viability was 1.1. `Fc1ccc(CNc2ncnc3ccc(F)cc23)cc1` [Spautin-1] came in with a cell viability of 1.17. As to `O=S(=O)(N=Cc1c(O)ccc2ccccc12)c1cccs1`, the cell viability came to 1.01. Molecule `CC[C@@H]1C(=O)N(C)c2cnc(Nc3ccc(C(=O)NC4CCN(C)CC4)cc3OC)nc2N1C1CCCC1` returned a cell viability of 0.585.

In turn, `O=C1CCc2c(ccc3ccccc23)O1` [Splitomicin] returned a cell viability of 1.01. The molecule `O=C(NNS(=O)(=O)c1ccccc1F)c1cc(F)cc(-c2ccccn2)c1` displayed a cell viability of 0.916. For `CCN1CCN(c2cc(-c3ccc(F)cc3)c3c(n2)CCCCCC3)CC1` [Blonanserin] the value was 1.03. For `COc1cc(N(C)C)cc(CN(C)CCc2ccc([N+](=O)[O-])cc2)c1O` [CDC25 Phosphatase Inhibitor I] the value was 1.07. `O=C(O)c1ccc(S(=O)(=O)N(Cc2ccc(OC(F)(F)F)cc2)c2ncc(C(F)(F)F)cc2Cl)cc1` had a cell viability of 0.969. `OC[C@H]1O[C@@H](Oc2cc3c(O)cc(O)cc3[o+]c2-c2ccc(O)c(O)c2)[C@H](O)[C@@H](O)[C@@H]1O` [Kuromanin chloride] came in with a cell viability of 0.964.

As to `COc1cc2ncnc(Nc3cccc(O)c3)c2cc1OC`, the cell viability was 0.849.

`COC(=O)Nc1nc2cc(C(=O)c3ccc(F)cc3)ccc2[nH]1` [Flubendazole] registered a cell viability of 1.16.

Turning to `COc1ccc(COc2cc3oc(=O)c4cc(C(C)O)ccc4c3cc2OC)cc1` (centres undefined) [Palomid 529], the cell viability came to 0.906.

In turn, `COC1=C(OC)C(=O)C(C/C=C(\C)CC/C=C(\C)CC/C=C(\C)CC/C=C(\C)CC/C=C(\C)CC/C=C(\C)CC/C=C(\C)CC/C=C(\C)CC/C=C(\C)CCC=C(C)C)=C(C)C1=O` [Coenzyme Q10] gave a cell viability of 0.948. `NC1=N[C@@]2(c3cc(NC(=O)c4ccc(F)cn4)ccc3F)COC[C@H]2CS1` registered a cell viability of 1.1. As to `O=C(O)C1=CO[C@@H](O[C@@H]2O[C@H](CO)[C@@H](O)[C@H](O)[C@H]2O)[C@H]2[C@@H]1C=C[C@]2(O)CO` [Monotropein], the cell viability was 1.07.

`COc1ccc2cc1Oc1ccc(cc1)C[C@H]1c3c(cc4c(c3Oc3cc5c(cc3OC)CCN(C)[C@@H]5C2)OCO4)CCN1C` [Cepharanthine] registered a cell viability of 0.999. For `NCCS` [2-Aminoethanethiol] the value was 1.03. The figure for `CN1C(C(=O)Nc2ccccn2)=C(O)c2ccccc2S1(=O)=O` [Piroxicam] is 1.02. Take `CN1C(N)=N[C@](C)(c2cc(NC(=O)c3ccc(F)cn3)ccc2F)CS1(=O)=O` [Verubecestat]: the cell viability came out at 0.969. `COc1c(C)c2c(c(O)c1C/C=C(\C)CCC(=O)OCCN1CCOCC1)C(=O)OC2` [Mycophenolate Mofetil] yielded a cell viability of 1.01. The figure for `N#CCCCSC(=N)N` [Kevetrin hydrochloride] is 0.938; for `COc1cc(C(=O)NC2CCN(C)CC2)ccc1Nc1ncc2c(n1)N(C1CCCC1)CC(F)(F)C(=O)N2C` it is 0.729. The figure for `O=C(NCc1cccc(O)c1)Nc1nc(-c2ccncc2)cs1` is 1.21; for `O=C1CN(CCN2CC(=O)N(CN3CCOCC3)C(=O)C2)CC(=O)N1CN1CCOCC1` [Bimolane] it is 1.1; for `Cc1ccc(S(=O)(=O)N2CCCC2c2ccc(F)cc2)cc1` (centres undefined) it is 0.904. Molecule `C[C@H]1COC2(CCN(c3nc(=O)c4cc(C(F)(F)F)cc([N+](=O)[O-])c4s3)CC2)O1` (racemic) [BTZ043 Racemate] showed a cell viability of 1.06. `CC1(C)CC(=O)c2c(C(F)(F)F)nn(-c3ccc(C(N)=O)c(N[C@H]4CC[C@H](OC(=O)CN)CC4)c3)c2C1` showed a cell viability of 0.527. Consider `CC1(C)[C@@H](O)CC[C@]2(C)[C@H]3C(=O)C=C4[C@@H]5C[C@@](C)(C(=O)O)CC[C@]5(C)CC[C@@]4(C)[C@]3(C)CC[C@@H]12` [Enoxolone], for which the cell viability is 1.2. As for `O=C(CCCN1CCC(O)(c2ccc(Cl)cc2)CC1)c1ccc(F)cc1` [Haloperidol], the cell viability turned out to be 1.13. Turning to `COc1cc2c(cc1OC)[C@@H]1Cc3ccc(OC)c(OC)c3CN1CC2` [Rotundine], the cell viability stood at 1.07. Molecule `O=C(O)/C=C/C(=O)O` [Fumaric acid] showed a cell viability of 0.971.

Take `CC1(C)CC[C@]2(C(=O)O)CC[C@]3(C)[C@H](C(=O)C=C4[C@@]5(C)C=C(C#N)C(=O)C(C)(C)[C@@H]5CC[C@]43C)[C@@H]2C1` [Bardoxolone]: the cell viability was 0.899. `Cc1ccc(C)c(OCCCC(C)(C)C(=O)O)c1` [Gemfibrozil] came in with a cell viability of 0.955. For `Cc1ccc(Sc2ccccc2N2CCNCC2)c(C)c1` [Vortioxetine] the value was 0.914; for `COc1ccc(CNc2nc(N(CCO)CCO)nc3c2ncn3C(C)C)cc1`, 1.07; for `NCC(=O)CCC(=O)O` [5-Aminolevulinic acid hydrochloride], 0.979. `C[C@H](NC(=O)CCc1nc2ccccc2c(=O)[nH]1)c1ccccc1` yielded a cell viability of 0.922. In the case of `Cc1nn(C)cc1-c1nc2c(N3CCN(Cc4ccc(Cl)cc4)CC3)c(Cl)cnc2[nH]1`, the cell viability came out at 0.998. The molecule `CN1CCC(CNc2ccc3ncc(-c4cccc(OC(F)(F)F)c4)n3n2)CC1` [SGI-1776 free base] came in with a cell viability of 0.86. `CC(C[N+](C)(C)C)OC(N)=O` (centres undefined) [Bethanechol chloride] showed a cell viability of 0.998. The figure for `NCCC(O)(P(=O)(O)O)P(=O)(O)O` [Pamidronate disodium salt] is 0.98. Molecule `Cc1ccc2nc(NCCN)c3ncc(C)n3c2c1` yielded a cell viability of 0.901. Molecule `Cc1cn([C@H]2C[C@H](N=[N+]=[N-])[C@@H](CO)O2)c(=O)[nH]c1=O` [Zidovudine] returned a cell viability of 0.947.

In the case of `CC(=O)c1cc([N+](=O)[O-])c(Sc2ccc(F)cc2F)s1`, the cell viability worked out at 0.98. `Cc1nn2c([nH]c(=O)c3cccnc32)c1C#N` had a cell viability of 1.02. In turn, `NS(=O)(=O)Cc1noc2ccccc12` [Zonisamide] registered a cell viability of 0.928.

As for `CN(C)CCN(Cc1ccc(Cl)cc1)c1ccccn1` [Chloropyramine hydrochloride], the cell viability is 1.09. In the case of `C=CCc1ccc(O)c(-c2cc(CC=C)ccc2O)c1` [Magnolol], the cell viability turned out to be 1.05.

For `COc1ccc2c(c1)C(=O)N(CCc1ccc(S(=O)(=O)NC(=O)NC3CCCCC3)cc1)C(=O)C2(C)C` [Gliquidone], the cell viability stood at 1.1. For the molecule `CC(=O)OC(C)C(C)C(=O)OCC12C3CC(C)(C)[C@H](O[C@@H]1C[C@]1(C)C3=CCC3C4(C)CCC(O[C@@H]5O[C@H](C(=O)O)[C@@H](O[C@H]6O[C@H](CO)[C@@H](O)[C@H](O)[C@H]6O)[C@H](O)[C@H]5O[C@@H]5OC[C@@H](O)[C@H](O)[C@H]5O)[C@](C)(CO)C4CCC31C)C2O` (some centres undefined) [Sodium Aescinate], the cell viability turned out to be 0.996.

`Cc1cnc(-c2cnc(NCCNc3ccc(C#N)cn3)nc2-c2ccc(Cl)cc2Cl)[nH]1`: the cell viability is 1.07. `CCNC(=O)c1noc(-c2cc(C(C)C)c(O)cc2O)c1-c1ccc(CN2CCOCC2)cc1` [Luminespib] showed a cell viability of 0.48. With `CNCc1ccc(-c2[nH]c3cc(F)cc4c3c2CCNC4=O)cc1` [Rucaparib Phosphate], the cell viability stood at 1.04. `Nc1nc(=O)c2c([nH]1)NC[C@H](CNc1ccc(C(=O)N[C@@H](CCC(=O)O)C(=O)O)cc1)N2C=O` [Calcium Levofolinate] yielded a cell viability of 1.11. For `COc1ccc(CCc2nc3cc(-c4c(C)noc4C)ccc3n2C[C@H](C)N2CCOCC2)cc1Cl`, the cell viability stood at 0.965.

With `Oc1nc(-c2ccc(C(F)(F)F)cc2)nc2c1CSCC2`, the cell viability was 0.982. With `COc1ccc(-c2coc3cc(O[C@@H]4O[C@H](CO)[C@@H](O)[C@H](O)[C@H]4O)ccc3c2=O)cc1O` [Calycosin-7-O-beta-D-glucoside], the cell viability was determined as 1.03. `CN[C@H](CNC(=O)N1CCC[C@@H]([C@@H](OCCNC(=O)OC)c2cccc(Cl)c2)C1)C[C@H]1CCCOC1` yielded a cell viability of 0.931. Take `CC(C)Cn1cnc2c(N)nc3ccccc3c21` [Imiquimod]: the cell viability was 1.02. `CCNC(=O)[C@@H]1CCCN1C(=O)[C@H](CCCNC(=N)N)NC(=O)[C@H](CC(C)C)NC(=O)[C@@H](CC(C)C)NC(=O)[C@H](Cc1ccc(O)cc1)NC(=O)[C@H](CO)NC(=O)[C@H](Cc1c[nH]c2ccccc12)NC(=O)[C@H](Cc1c[nH]cn1)NC(=O)[C@@H]1CCC(=O)N1` [Leuprolide Acetate] yielded a cell viability of 0.954. The molecule `CCCCN1CCC(CNC(=O)c2c3n(c4ccccc24)CCCO3)CC1` [Piboserod] showed a cell viability of 1.16.
